# Assay results: PubChem BioAssay AID485297 (National Center for Advancing Translational Sciences (NCATS), 2010)
# About 9,100 (2.8%) of roughly 320,000 compounds were called active. The inconclusive results got no clear call from the source; some entries with a clear call stand among them for comparison. Calls follow the shape of the dose curve; as a rule, active = well fitted activation curve with a large enough effect; inconclusive = small, poorly fitted or top-dose-only effect; inactive = no such curve, though single readings can be large or run the other way. Potencies of inconclusive entries are left out as doubtful fits.
# Assay: qHTS Assay for Rab9 Promoter Activators; also: nearly all actives have a fitted effect of over 60% in size; as to activation, negative = inhibition: % of control where 0% means no effect
# Conditions: Huh7 Rab9 promoter-luciferase reporter, luminescence, 24 h; series mostly up to 9.22 µM; activation, negative = inhibition: at the top concentration
# Method in brief: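 Using Huh7 cells stably transfected with Rab9 promoter–luciferase, compounds were incubated 24 h at 37 °C, 5% CO2; luciferase luminescence was read 10 min after reagent addition.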
# Potency is read from the fitted curve at half-maximal effect; tags tell the direction and shape of the fitted curve.
SMILES,Potency,"activation, negative = inhibition"
Cc1cc2nc(SCCN3CCOCC3)[nH]c2cc1C,active: 3.55 µM,–
O=C(NCc1cccs1)C1CCC(CNS(=O)(=O)c2ccccc2)CC1 (stereo not drawn),–,inactive: 4.73%
O=C(Nc1ccc(-c2nc3ccccc3[nH]2)cc1)C1CCCO1 (stereo not drawn),active: 0.316 µM,–
COc1ccc(/C=C2\SC(=O)N=C2N)cc1OC,–,inactive: 0.292%
CCN1/C(=C/C(=O)c2ccco2)Sc2ccccc21,"inconclusive [activator, single point]",–
O=C(Nc1ccc(Cl)cc1F)c1ccc(-n2cncn2)cc1,"inconclusive [activator, single point]",–
c1ccc2[nH]c(SCc3ccc(-c4nnco4)cc3)nc2c1,active: 3.55 µM,–
Cc1ccc(C(=O)N/N=C\c2cccnc2)s1,"inconclusive [activator, single point]",–
Clc1ccc(-c2nnc(Sc3nc4ccccc4o3)c3ccccc23)cc1,"inconclusive [activator, partial curve]",–
O=C(Nc1nc2c(ccc3ccccc32)s1)c1ccco1,"inconclusive [activator, partial curve]",–
Cc1cc(C)cc(N(C(=O)CNC(=O)c2ccco2)C(C(=O)NC2CCCCC2)c2ccncc2)c1 (stereo not drawn),–,inactive: 3.6%
Cn1ccc(NC(=O)Nc2ccc(Cl)cc2Cl)n1,"inconclusive [activator, single point]",–
COc1ccc(OCC(=O)C2CC2)c(C#N)c1,"inconclusive [activator, partial curve]",–
Cc1ccc(NC(=O)CSCc2cc(=O)n3ccsc3n2)cc1,–,inactive: -2.63%
COC(=O)c1ccc(-n2cnc3ccccc32)nc1,"inconclusive [activator, partial curve]",–
Cc1ccc(-c2cc(C(=O)Nc3c(C#N)cnn3C)no2)cc1,–,inactive: 27.3%
Cn1nccc1C(=O)NC(=S)Nc1sc2c(c1C#N)CCCCC2,"inconclusive [activator, partial curve]",–
O=C(CN(c1cccc(Cl)c1)S(=O)(=O)c1ccc(Cl)cc1)N1CCc2ccccc2C1,–,inactive: 0.413%
COc1ccccc1NC(=O)CN(Cc1ccco1)C(=O)c1ccc(-n2nc(C)cc2C)cc1,–,inactive: 1.76%
Cc1ccc(/C=N/Nc2nncc(-c3ccccc3)n2)o1,"inconclusive [activator, single point]",–
N#Cc1cnc2cc(-c3ccccc3)nn2c1N,"inconclusive [activator, partial curve]",–
Fc1ccc(-c2csc(-c3ccccn3)n2)cc1F,"inconclusive [activator, single point]",–
O=C(OCc1ccccc1)c1ccc2c(c1)-c1ccccc1C2=O,"inconclusive [activator, single point]",–
O=C(Cc1coc2ccc3ccccc3c12)N1CCc2ccccc21,–,inactive: 6.57%
c1ccc(-c2noc(C34CC5CC(CC(C5)C3)C4)n2)nc1,"inconclusive [activator, partial curve]",–
O=C(NCc1cccnc1)c1cc(-c2ccccc2)on1,"inconclusive [activator, partial curve]",–

SMILES,Potency,"activation, negative = inhibition"
Cc1ccc2c(c1)COc1c3ccc(C(=O)N4CCCCC4)cc3nn1-2,"inconclusive [activator, partial curve]",–
O=C(Cn1cnc2c(nnn2Cc2ccccc2)c1=O)c1ccc(Cl)cc1,–,inactive: 1.13%
O=[N+]([O-])c1ccccc1/C=N/N1CCN(Cc2ccccc2)CC1,"inconclusive [activator, partial curve]",–
Nc1c(C(=O)CSc2nc3ccccc3o2)c(=O)[nH]c(=O)n1C1CC1,"inconclusive [activator, single point]",–
Cc1ccc(C(=O)NNC(=O)CSc2nnc(C(C)C)n2C)cc1,–,inactive: -4.12%
Cc1sc(NC(=O)c2sc3nc4c(C)cccc4cc3c2N)c(C#N)c1C,"inconclusive [activator, single point]",–
COc1ccc(/C(C)=N/N2CCCCC2)c(O)c1,–,inactive: 18.4%
O=C(CSc1ccccc1)NC1CCCCCC1,"inconclusive [activator, partial curve]",–
CNc1ccccc1C(C)(C)c1cc(-c2cccc([N+](=O)[O-])c2)no1,–,inactive: -8.47%
Cc1ccc(C)n1-c1ccc2c(c1)COC2=O,–,inactive: -2.13%
O=c1oc2c(CN3CCCCC3)c(O)ccc2cc1-c1nc2ccccc2[nH]1,"inconclusive [activator, single point]",–
COC(=O)c1ccc(COc2ccc(C=O)cc2)o1,–,inactive: -2.97%
Cc1ccc(Cn2cc(SCC(=O)Nc3nccs3)c3ccccc32)cc1,"inconclusive [activator, single point]",–
COc1ccc(CCNC(=O)C2CCN(C(=O)c3ccc(C(C)(C)C)cc3)CC2)cc1OC,"inconclusive [activator, partial curve]",–
S=c1[nH]nc(-c2cccs2)n1/N=C/c1cn(-c2ccccc2)nc1-c1cccs1,"inconclusive [activator, single point]",–
O=C(NCCc1ccccc1)c1ccco1,"inconclusive [activator, partial curve]",–
Cc1cccc(NC(=S)NC(=O)c2cccs2)n1,"inconclusive [activator, partial curve]",–
CN(C)S(=O)(=O)Oc1ccsc1C(=O)Nc1ccc(C(F)(F)F)cc1,"inconclusive [activator, partial curve]",–
Cc1cc(NC(=O)c2ccccc2[N+](=O)[O-])ccc1Br,"inconclusive [activator, single point]",–
COc1ccc(/C=N\NC(=O)c2ccc(=O)[nH]n2)cc1O,–,inactive: 3.75%
S=C(Nc1ccccn1)Nc1ccccc1Cl,"inconclusive [activator, single point]",–
CCN(CCn1cccn1)C(=O)CCc1nnc(C2(c3ccc(Cl)cc3)CCC2)o1,"inconclusive [activator, single point]",–
COc1ccc(C(=O)N/C(=C\c2cn(S(=O)(=O)N(C)C)c3ccccc23)C(=O)NCCCN2CCOCC2)cc1,–,inactive: -1.01%
Oc1ccc(N=C/C=C/c2cccc(Br)c2)cc1-c1nc2ccccc2s1,"inconclusive [activator, single point]",–
Cc1ccc(CNC(=O)/C=C/c2c(Cl)cccc2Cl)cc1,–,inactive: -0.18%
Cc1ccc(NN=C2c3ccccc3-c3ccccc32)cc1,"inconclusive [activator, single point]",–

SMILES,Potency,"activation, negative = inhibition"
COc1ccccc1CCNC(=O)c1c(C)nn(CC(C)C)c1Cl,"inconclusive [activator, partial curve]",–
COc1cccc(/C=N/NC(=O)C[n+]2ccccc2)c1OC,–,inactive: -2.75%
COc1ccc(-c2nnc(-c3ccc(C)cc3)o2)cc1,"inconclusive [activator, partial curve]",–
COC(=O)c1sc(N/N=C/c2ccc(C(C)C)cc2)nc1C,"inconclusive [activator, partial curve]",–
Cc1cccc(Nc2nc(-c3sc(C)nc3C)cs2)c1,"inconclusive [activator, partial curve]",–
COc1ccccc1C(=O)Nc1cc2cc(Br)ccc2oc1=O,"inconclusive [activator, single point]",–
COC(=O)c1c(/N=C/N(C)C)sc2c1CCN(c1ncc(C(F)(F)F)cc1Cl)C2,–,inactive: -0.517%
O=C(Nc1nc(-c2cccnc2)cs1)c1cccc([N+](=O)[O-])c1,"inconclusive [activator, partial curve]",–
Cc1cc(N)n2ncc(-c3ccc(Cl)cc3)c2n1,active: 3.16 µM,–
O=C(COc1ccccc1)NC(=S)Nc1cccc2cc(O)ccc12,–,inactive: 3.82% [at 1.84 µM]
C=CCNc1ncnc2sc(SC)nc12,–,inactive: -0.113%
COCCCn1nnnc1SCC(=O)Nc1ccc2c(c1)OCCO2,–,inactive: -1.3%
Cc1cccc(-n2c(C)c(C)c3c(N)ncnc32)c1,–,inactive: 13.6%
Cc1cc(C)c(-n2c(SCC(=O)N3CCOCC3)n[nH]c2=O)c(C)c1,–,inactive: 6.16%
COc1ccc(CNC(=O)CN2C(=O)COc3ccc(S(=O)(=O)N4CCCC4)cc32)cc1,–,inactive: -4.53%
c1coc(CNc2nc3ccccc3s2)c1,"inconclusive [activator, partial curve]",–
O=C1/C(=C\c2cccs2)Sc2ccc3ccccc3c21,–,inactive: 20.1%
Cc1cc(-c2nc3ncccc3o2)ccc1N,"inconclusive [activator, partial curve]",–
Cc1ccc(SCCC(=O)Nc2c(C)n(C)n(-c3ccccc3)c2=O)cc1,–,inactive: -4.19%
Fc1cccc(/C=N/NC(=S)Nc2ccccc2Cl)c1,"inconclusive [activator, partial curve]",–
COc1ccc(C(=O)c2sc3nc(-c4ccccc4)ccc3c2N)cc1,–,inactive: -10.2%
COc1ccc2nc(NC(=O)c3ccco3)sc2c1,active: 0.112 µM,–
O=C(/C=C/c1ccc(F)cc1)NCCC1=CCCCC1,"inconclusive [activator, single point]",–
CC1CCN(C(=O)c2cc(-c3ccc(Cl)c(Cl)c3)on2)CC1,–,inactive: 23.9%
COC(=O)c1ccc(COC(=O)c2ccc(C)c(S(=O)(=O)N3CCCCC3)c2)cc1,"inconclusive [activator, partial curve, poor fit]",–
Nc1ccc(Oc2ccc3c(c2)C(=O)N(CC2CCCO2)C3=O)cc1 (stereo not drawn),"inconclusive [activator, partial curve]",–
